# Measured values as given in the supplement of paper PMC8728848.
# The other results are listed elsewhere or left out.
# B1: EEA (Euonymus europaeus) (protein)
# chain: MASTIIATGPTYRVYCRAAPNYNMIVGKGVAFLAPIDETNELQYWYKDDTYSYIKDEAGLPAFSLVNKATGLTLKHSNHHPVPVKLVTYNPNVVDESVLWSQADDRGDGYSAIRSLTNPASHLEAAPLNDWSYNGAIIMGGVWIDAYNQQWKIEPHTG
# Columns and labels:
# Experiment in all cases: glycan array binding signal (z-score within array); higher = stronger binding
# Conditions in all cases: glycan notation: IUPAC condensed, linker removed
# Fuc(b1-3)GlcNAc = target: Fuc(b1-3)GlcNAc
# How it was run: (§1)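 Glycan array binding is given as a within-array Z-score, which can be read as non-binding when negative. The arrays, 3228 of them, came from the Consortium for Functional Glycomics database and were retained only where the protein sequence was available. Z-scores were averaged across arrays of the same protein sequence at different concentrations or buffers and across linkers.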
# Gal(a1-2)Gal = target: Gal(a1-2)Gal
# How it was run: as §1
# Gal(a1-3)Gal = target: Gal(a1-3)Gal
# How it was run: as §1
# Gal(a1-3)Gal(b1-3)Glc = target: Gal(a1-3)Gal(b1-3)Glc
# How it was run: as §1
# Gal(a1-3)Gal(b1-3)GlcNAc = target: Gal(a1-3)Gal(b1-3)GlcNAc
# How it was run: as §1
# [1] = target: Gal(a1-3)Gal(b1-3)GlcNAc(b1-2)Man
# How it was run: as §1
# [2] = target: Gal(a1-3)Gal(b1-3)GlcNAc(b1-2)Man(a1-3)[Gal(a1-3)Gal(b1-3)GlcNAc(b1-2)Man(a1-6)]Man(b1-4)GlcNAc(b1-4)GlcNAc
# How it was run: as §1
# [3] = target: Gal(a1-3)Gal(b1-3)GlcNAc(b1-3)GalNAc
# How it was run: as §1
# [4] = target: Gal(a1-3)Gal(b1-3)GlcNAc(b1-6)GalNAc
# How it was run: as §1
# [5] = target: Gal(a1-3)Gal(b1-3)[Fuc(a1-4)]GlcNAc(b1-2)Man(a1-3)[Gal(a1-3)Gal(b1-3)[Fuc(a1-4)]GlcNAc(b1-2)Man(a1-6)]Man(b1-4)GlcNAc(b1-4)GlcNAc
# How it was run: as §1
# Gal(a1-3)Gal(b1-4)Glc = target: Gal(a1-3)Gal(b1-4)Glc
# How it was run: as §1
# Gal(a1-3)Gal(b1-4)GlcNAc = target: Gal(a1-3)Gal(b1-4)GlcNAc
# How it was run: as §1
# [6] = target: Gal(a1-3)Gal(b1-4)GlcNAc(b1-2)Man
# How it was run: as §1
# [7] = target: Gal(a1-3)Gal(b1-4)GlcNAc(b1-2)Man(a1-3)[Gal(a1-3)Gal(b1-4)GlcNAc(b1-2)Man(a1-6)]Man(b1-4)GlcNAc(b1-4)GlcNAc
# How it was run: as §1
# [8] = target: Gal(a1-3)Gal(b1-4)GlcNAc(b1-3)GalNAc
# How it was run: as §1
# [9] = target: Gal(a1-3)Gal(b1-4)GlcNAc(b1-6)GalNAc
# How it was run: as §1
# [10] = target: Gal(a1-3)Gal(b1-4)[Fuc(a1-3)]GalNAc
# How it was run: as §1
# [11] = target: Gal(a1-3)Gal(b1-4)[Fuc(a1-3)]GlcNAc
# How it was run: as §1
# [12] = target: Gal(a1-3)Gal(b1-4)[Fuc(a1-3)]GlcNAc(b1-2)Man(a1-3)[Gal(a1-3)Gal(b1-4)[Fuc(a1-3)]GlcNAc(b1-2)Man(a1-6)]Man(b1-4)GlcNAc(b1-4)GlcNAc
# How it was run: as §1
# Gal(a1-3)GalNAc = target: Gal(a1-3)GalNAc
# How it was run: as §1
# Gal(a1-3)GlcNAc = target: Gal(a1-3)GlcNAc
# How it was run: as §1
# [13] = target: Gal(a1-3)[Gal(a1-4)]Gal(b1-4)GlcNAc
# How it was run: as §1
# [14] = target: Gal(a1-4)Gal(b1-3)GlcNAc(b1-2)Man(a1-3)[Gal(a1-4)Gal(b1-3)GlcNAc(b1-2)Man(a1-6)]Man(b1-4)GlcNAc(b1-4)GlcNAc
# How it was run: as §1
# Gal(a1-4)Gal(b1-4)Gal = target: Gal(a1-4)Gal(b1-4)Gal
# How it was run: as §1
# Gal(a1-4)Gal(b1-4)GalNAc = target: Gal(a1-4)Gal(b1-4)GalNAc
# How it was run: as §1
# Gal(a1-4)Gal(b1-4)Glc = target: Gal(a1-4)Gal(b1-4)Glc
# How it was run: as §1
# Gal(a1-4)Gal(b1-4)GlcNAc = target: Gal(a1-4)Gal(b1-4)GlcNAc
# How it was run: as §1
# [15] = target: Gal(a1-4)Gal(b1-4)GlcNAc(b1-2)Man(a1-3)[Gal(a1-4)Gal(b1-4)GlcNAc(b1-2)Man(a1-6)]Man(b1-4)GlcNAc(b1-4)GlcNAc
# How it was run: as §1
# [16] = target: Gal(a1-4)Gal(b1-4)GlcNAc(b1-3)Gal(b1-4)Glc
# How it was run: as §1
# Gal(a1-4)GlcNAc = target: Gal(a1-4)GlcNAc
# How it was run: as §1
# Gal(a1-6)Glc = target: Gal(a1-6)Glc
# How it was run: as §1
# Gal(b1-2)Gal = target: Gal(b1-2)Gal
# How it was run: as §1
# Gal(b1-3)Gal = target: Gal(b1-3)Gal
# How it was run: as §1
# Gal(b1-3)Gal(b1-4)GlcNAc = target: Gal(b1-3)Gal(b1-4)GlcNAc
# How it was run: as §1
# Gal(b1-3)GalNAc = target: Gal(b1-3)GalNAc
# How it was run: as §1
# [17] = target: Gal(b1-3)GalNAc(a1-3)[Fuc(a1-2)]Gal(b1-4)Glc
# How it was run: as §1
# [18] = target: Gal(b1-3)GalNAc(a1-3)[Fuc(a1-2)]Gal(b1-4)GlcNAc
# How it was run: as §1
# Gal(b1-3)GalNAc(b1-3)Gal = target: Gal(b1-3)GalNAc(b1-3)Gal
# How it was run: as §1
# [19] = target: Gal(b1-3)GalNAc(b1-3)Gal(a1-4)Gal(b1-4)Glc
# How it was run: as §1
# [20] = target: Gal(b1-3)GalNAc(b1-3)Gal(b1-4)Glc
# How it was run: as §1
# [21] = target: Gal(b1-3)GalNAc(b1-3)Gal(b1-4)GlcNAc
# How it was run: as §1
# [22] = target: Gal(b1-3)GalNAc(b1-4)Gal(b1-4)Glc
# How it was run: as §1
# [23] = target: Gal(b1-3)GalNAc(b1-4)[Neu5Ac(a2-3)]Gal(b1-4)Glc
# How it was run: as §1
# Gal(b1-3)GlcNAc = target: Gal(b1-3)GlcNAc
# How it was run: as §1
# [24] = target: Gal(b1-3)GlcNAc(a1-3)Gal(b1-4)GlcNAc
# How it was run: as §1
binder,measurement,setting,value
B1,glycan array binding signal (z-score),Fuc(b1-3)GlcNAc,-0.156
same,glycan array binding signal (z-score),Gal(a1-2)Gal,-0.242
same,glycan array binding signal (z-score),Gal(a1-3)Gal,-0.176
same,glycan array binding signal (z-score),Gal(a1-3)Gal(b1-3)Glc,0.318
same,glycan array binding signal (z-score),Gal(a1-3)Gal(b1-3)GlcNAc,1.21
same,glycan array binding signal (z-score),[1],0.029
same,glycan array binding signal (z-score),[2],-0.115
same,glycan array binding signal (z-score),[3],-0.146
same,glycan array binding signal (z-score),[4],-0.22
same,glycan array binding signal (z-score),[5],-0.071
same,glycan array binding signal (z-score),Gal(a1-3)Gal(b1-4)Glc,-0.144
same,glycan array binding signal (z-score),Gal(a1-3)Gal(b1-4)GlcNAc,1.01
same,glycan array binding signal (z-score),[6],-0.024
same,glycan array binding signal (z-score),[7],0.698
same,glycan array binding signal (z-score),[8],-0.175
same,glycan array binding signal (z-score),[9],-0.194
same,glycan array binding signal (z-score),[10],1.68
same,glycan array binding signal (z-score),[11],-0.184
same,glycan array binding signal (z-score),[12],0.198
same,glycan array binding signal (z-score),Gal(a1-3)GalNAc,-0.092
same,glycan array binding signal (z-score),Gal(a1-3)GlcNAc,-0.27
same,glycan array binding signal (z-score),[13],-0.063
same,glycan array binding signal (z-score),[14],-0.238
same,glycan array binding signal (z-score),Gal(a1-4)Gal(b1-4)Gal,-0.268
same,glycan array binding signal (z-score),Gal(a1-4)Gal(b1-4)GalNAc,-0.27
same,glycan array binding signal (z-score),Gal(a1-4)Gal(b1-4)Glc,-0.143
same,glycan array binding signal (z-score),Gal(a1-4)Gal(b1-4)GlcNAc,-0.164
same,glycan array binding signal (z-score),[15],-0.114
same,glycan array binding signal (z-score),[16],-0.19
same,glycan array binding signal (z-score),Gal(a1-4)GlcNAc,-0.183
same,glycan array binding signal (z-score),Gal(a1-6)Glc,-0.205
same,glycan array binding signal (z-score),Gal(b1-2)Gal,-0.172
same,glycan array binding signal (z-score),Gal(b1-3)Gal,-0.203
same,glycan array binding signal (z-score),Gal(b1-3)Gal(b1-4)GlcNAc,-0.16
same,glycan array binding signal (z-score),Gal(b1-3)GalNAc,0.01
same,glycan array binding signal (z-score),[17],-0.228
same,glycan array binding signal (z-score),[18],-0.142
same,glycan array binding signal (z-score),Gal(b1-3)GalNAc(b1-3)Gal,-0.189
same,glycan array binding signal (z-score),[19],-0.24
same,glycan array binding signal (z-score),[20],-0.329
same,glycan array binding signal (z-score),[21],-0.501
same,glycan array binding signal (z-score),[22],-0.213
same,glycan array binding signal (z-score),[23],-0.241
same,glycan array binding signal (z-score),Gal(b1-3)GlcNAc,-0.193
same,glycan array binding signal (z-score),[24],-0.189
